# PubChem BioAssay AID504706 (National Center for Advancing Translational Sciences (NCATS), 2011)
# The campaign covered roughly 320,000 compounds. About 200 (0.062%) were called active. The shares of active, inactive and inconclusive entries below differ from those in the screen. Calls follow the shape of the dose curve; as a rule, active = well fitted activation curve with a large enough effect; inconclusive = small, poorly fitted or top-dose-only effect; inactive = no such curve, though single readings can be large or run the other way. Potencies of inconclusive entries are left out as doubtful fits.
# Experiment: qHTS assay for re-activators of p53 using a Luc reporter; also: nearly all actives have a fitted effect of over 45% in size
# Conditions: H1299 p53-A138V BP100-luciferase reporter, luminescence, 24 h; series mostly up to 92.2 µM
# Method in brief: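 H1299 (p53-null), stable ts p53-A138V + BP100-Luc; 1000 cells/well, Opti-MEM/10% FBS; cpd 4 pt, 1:5; 24 h, 37 deg C, 5% CO2; detection reagent 10 min RT; luminescence.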
# Potency is read from the fitted curve at half-maximal effect; tags tell the direction and shape of the fitted curve.
row,SMILES,Potency
1,O=C(C1CCC1)N1CCN(c2ccnc3cc(Cl)ccc23)CC1,inactive
2,CCOc1ccccc1C(=O)NC1CCNCC1,"inconclusive [activator, single point]"
3,CC1CCCC(NC(=O)COC(=O)CCC2CCCC2)C1C (stereo not given),inactive
4,O=[N+]([O-])c1ccc(COc2ccccc2/C=N/O)cc1,"inconclusive [activator, partial curve, poor fit]"
5,Cc1cc(NC(=O)C2CCCCC2)ccc1NC(=O)c1ccccc1Cl,inactive
6,O=C(Nc1ccc(Br)cc1)Nc1ccccc1Cl,"inconclusive [activator, partial curve, poor fit]"
7,COc1cc2ccccc2cc1C(=O)Nc1ccc(Cl)cn1,"inconclusive [activator, partial curve, poor fit]"
8,O=C(O)CCCCCn1c(O)c(C=C2N=c3ccccc3=N2)sc1=S,"inconclusive [activator, full curve, poor fit]"
9,C[C@]12CCC3C(CC[C@H]4CC(O)CC[C@]34C)C1CC/C2=N/NC(=O)c1ccncc1 (stereo not given in full),inactive
10,CC[N+]1=C(C)C(C)(C)c2cc(C)ccc21,inactive
11,COC(=O)c1c(C)[nH]c(C(=O)OCC(=O)c2ccc(C)s2)c1C,"inconclusive [activator, partial curve, poor fit]"
12,COc1ccccc1-c1cc(C(=O)Nc2cc(C)on2)no1,"inconclusive [activator, partial curve, poor fit]"
13,COc1cccc(-c2nnc(NC(=O)c3ccc4ncsc4c3)o2)c1,"inconclusive [activator, single point]"
14,C=CCNc1nc(-c2ccc(Cl)cc2)cs1,"inconclusive [activator, full curve, poor fit]"
15,Cc1ccc(/C=C/C2=NN(C)C(=O)CC2)cc1,inactive
16,O=C(Cc1ccc(Br)cc1)OCC(=O)c1ccc[nH]1,inactive
17,Cc1ccc(NC(=S)/C(=C(\[O-])c2ccc(C)c([N+](=O)[O-])c2)[n+]2ccccc2)cc1C,"inconclusive [activator, single point]"
18,CSc1ncccc1C(=O)OCc1cccc([N+](=O)[O-])c1,"inconclusive [activator, partial curve, poor fit]"
19,COc1ccc(-c2cn(Cc3ccc(C(N)=O)cc3)c(CCN)n2)cc1,"inconclusive [activator, full curve, poor fit]"
20,CCOC(=O)C(=CNc1cccc(N)n1)C(=O)OCC,"inconclusive [activator, single point]"
21,CS(=O)(=O)c1cccc(C(=O)Nc2ccc(S(=O)(=O)N3CCCCC3)cc2)c1,inactive
22,Cc1nc(-c2ccc(C(=O)Nc3ccccc3F)cc2)cs1,inactive
23,Nc1nc2ccc(C(=O)NC3CCCCC3)cc2s1,"inconclusive [activator, full curve, poor fit]"
24,O=C(CN1CCCCC1)Nc1cc(Cl)ccc1Cl,"inconclusive [activator, partial curve, poor fit]"

row,SMILES,Potency
1,Cc1c(C(=O)Nc2ccc(Oc3ccccc3)cc2)sc2nc3n(c(=O)c12)CCC3,"inconclusive [activator, single point]"
2,CCCCc1nc2cc(C(=O)NC(C)c3cnn(C)c3)ccc2o1 (stereo not given),inactive
3,COc1ccc(C)cc1N(C(=O)c1ccccc1)c1nc2ccccc2s1,"inconclusive [activator, single point]"
4,CCN(CC)CCCC(C)NC(=O)c1cccc(S(=O)(=O)N2CCc3ccccc32)c1 (stereo not given),inactive
5,COc1ccccc1OCCNC(=O)CN1C(=O)NC2(CCCCC2)C1=O,"inconclusive [activator, single point]"
6,O=C(COC(=O)c1cccc(S(=O)(=O)N2CCOCC2)c1)NCCc1ccccc1,"inconclusive [activator, single point]"
7,COc1cccc(C2Nc3ccccc3C(=O)N2c2ccc(F)cc2)c1O (stereo not given),"inconclusive [activator, partial curve, poor fit]"
8,Cc1ccc(S(=O)(=O)N2CCN(C(=O)CSc3nnnn3C)CC2)c(C)c1,"inconclusive [activator, single point]"
9,N/C(=N\OC(=O)c1cccc(Cl)c1)c1cccnc1,"inconclusive [activator, partial curve, poor fit]"
10,CCC(C)(C)n1nnnc1C(c1cc2cc3c(cc2[nH]c1=O)OCO3)N1CCCCC1 (stereo not given),inactive
11,COc1ccc(C(=O)Nc2ccc(N3CCCCCC3)cc2)cc1S(=O)(=O)N1CCOCC1,inactive
12,COC(=O)COc1ccc(Oc2cc(C)nc(SC)n2)nn1,"inconclusive [activator, single point]"
13,O=C(COc1ccccc1)Nc1cccc(-c2nc3ccccc3[nH]2)c1,"inconclusive [activator, single point]"
14,Cn1c(-c2ccc3ccccc3n2)nc2cnccc21,"inconclusive [activator, full curve, poor fit]"
15,COc1ccccc1-c1cc(C(=O)N2CCN(c3ccc(F)cc3)CC2)no1,"inconclusive [activator, single point]"
16,CCOC(=O)C1(Cc2cccc(Cl)c2)CCCN(C(=O)c2ccnn2C)C1 (stereo not given),"inconclusive [activator, partial curve, poor fit]"
17,Cc1ccc(SSc2cc(C)ccc2N)c(N)c1,"inconclusive [activator, partial curve, poor fit]"
18,COc1ccc(OC(=O)c2cc3ccccc3o2)cc1,inactive
19,O=C(COC(=O)Cc1cccc(F)c1)NCCc1ccccc1,inactive
20,CCOC(=O)c1c(NC(=O)COc2ccccc2OCC)sc2c1CC(C)(C)NC2(C)C,"inconclusive [activator, partial curve, poor fit]"
21,CCOC(=O)c1c(S(=O)(=O)NCC(=O)Nc2cccc(C)n2)c(C)n(C)c1C,inactive
22,Cc1[nH]n(C(N)=S)c(=O)c1N=Nc1ccc(Cl)cc1Cl,"inconclusive [activator, partial curve, poor fit]"
23,O=C(Nc1cccc(O)c1)c1ccc(C(=O)c2ccccc2)o1,"inconclusive [activator, single point]"
24,CCOc1ccc(NC(=O)c2cnccn2)cc1,"inconclusive [activator, partial curve, poor fit]"

row,SMILES,Potency
1,Cc1ccc(Sc2ncccc2COC(=O)Nc2c(C)cccc2C)cc1,"inconclusive [activator, partial curve, poor fit]"
2,Cc1ccc(CSCC(=O)Nc2ccc(F)cc2)cc1,"inconclusive [activator, single point]"
3,Cc1ccc2ncnc(-c3ccccc3)c2c1,inactive
4,CCCC(NC(=S)NCC1CCCO1)C12CC3CC(CC(C3)C1)C2 (stereo not given),inactive
5,O=c1c2ccccc2nc(N/N=C/c2ccccc2)n1O,"inconclusive [activator, single point]"
6,CN1CCN(CCP(=O)(c2ccccc2)c2ccccc2)CC1,"inconclusive [activator, single point]"
7,Cc1ccc(NS(=O)(=O)N2CCOCC2)cc1Cl,"inconclusive [activator, single point]"
8,CN(C)c1cccc(C(=O)N2CCCC(CCC(=O)NCc3ccccc3F)C2)c1 (stereo not given),"inconclusive [activator, single point]"
9,O=C(Nc1cccn(Cc2ccccc2)c1=O)NC1CCCCC1,inactive
10,CCOc1ccccc1N1CCN(C(=O)c2cn(CC3CCCCC3)nn2)CC1,"inconclusive [activator, partial curve, poor fit]"
11,CCCN1CCc2c(sc(NC(=O)c3ccc(S(=O)(=O)N(C)c4ccccc4)cc3)c2C(N)=O)C1,"inconclusive [activator, single point]"
12,COc1nc(C)ccc1-c1noc(-c2cccnc2)n1,inactive
13,N/C(=N\OC(=O)C1CCCCC1)c1ccccn1,"inconclusive [activator, single point]"
14,O=C(/C=C/c1ccc([N+](=O)[O-])cc1)NCc1ccco1,"inconclusive [activator, full curve, poor fit]"
15,CCOC(=O)c1cc(C(=O)Nc2ccccc2F)nn1C,"inconclusive [activator, partial curve, poor fit]"
16,C/C(=C\C(=O)c1ccc(Cl)cc1)Nc1ccc(N2CCOCC2)cc1,inactive
17,Cc1cc(CN2CCC(N3CCC(C(=O)NC4CC4)CC3)CC2)cc(C)c1O,"inconclusive [activator, partial curve, poor fit]"
18,CCCc1ccc(OCc2ccc(C(=O)O)o2)c(OC)c1,inactive
19,C/C(CC(=O)Nc1ccccn1)=N\NC(=O)c1ccccc1,"inconclusive [activator, full curve, poor fit]"
20,COc1cc(C2N(c3ccccc3)CCN2c2ccccc2)ccc1OC(C)=O,"inconclusive [activator, partial curve, poor fit]"
21,Cc1nnc(NC(=O)C2COc3ccccc3O2)s1 (stereo not given),"inconclusive [activator, partial curve, poor fit]"
22,C=CCn1cnc2c(NCc3ccccc3)ncnc21,"inconclusive [activator, partial curve, poor fit]"
